In US20100069815A1 (ASAHI KASEI, published 2010):

B1: Leu3a scFv-SA-guanidine (scFv)
scFv: MADIVLTQSPASLAVSLGQRATISCKASQSVDYDGDSYMNWYQQKPGQPPKLLIYAASNLESGIPARFTGSGSGTDFTLNIHPVEEEDTATYYCQQSYEDPPTFAGGTNLEIKGGGGSGGGGSGGGGSMVHLQESEPELVKPGASVKMSCKASGYTFTDYVINWVKQRTGQGLEWIGETYTGSGSSYYNEKFKDKATLTVDKASNIAYMQLSSLTSEDSAVYFCARRGKGTGFAFWGQGTLVTVSAAAADYKDDDDKGSS[about 120 residues not listed]GSTHHHHHH
notes: also called Leu3a scFv-SA protein
B2: Leu3a scFv-SA-Urea (scFv)
scFv: MADIVLTQSPASLAVSLGQRATISCKASQSVDYDGDSYMNWYQQKPGQPPKLLIYAASNLESGIPARFTGSGSGTDFTLNIHPVEEEDTATYYCQQSYEDPPTFAGGTNLEIKGGGGSGGGGSGGGGSMVHLQESEPELVKPGASVKMSCKASGYTFTDYVINWVKQRTGQGLEWIGETYTGSGSSYYNEKFKDKATLTVDKASNIAYMQLSSLTSEDSAVYFCARRGKGTGFAFWGQGTLVTVSAAAADYKDDDDKGSS[about 120 residues not listed]GSTHHHHHH
notes: Covalently immobilized on GMA grafted nonwoven fabric in the assay

Biological target: T1, CD4 on CD4 positive cells in human peripheral blood (human, UniProt P01730)
T1 construct: whole, on cells; also called CD4 molecules
Experiment: cell adsorption from human whole blood on covalently immobilized binder (GMA grafted nonwoven fabric column); flow cytometry; mean ± SD of 3
Experimental: Immediately before the initiation of experiment, the PBS(−) solution was drained off by flowing air through the column. 5.0 ml of healthy human fresh blood containing ACD-A ([…] Laboratories) (blood:ACD-A=6.7:1) was fed from the inlet of the cell adsorber at a flow rate of 1.0 ml/min with a syringe pump. After discarding the first five drops, the treated blood was collected from the outlet of the column.
The CD4 positive cell removal rate at that time was calculated based on the change in the number of leukocytes measured by Coulter counter, and the change in the proportion of CD4 positive cells in the recovered cells measured by flow cytometry with use of a flow cytometer (FACS Calibur: Becton, Dickinson and Company). The cells were stained by the following manner. 100 μl of the collected blood was added with 10 μl of anti-CD4-PE solution (clone SK3, Becton, Dickinson and Company), 10 μl of anti-CD8-FITC solution (clone RPA-T8, Becton, Dickinson and Company), and 10 μl of anti-CD45-PerCP solution (Becton, Dickinson and Company). The resultant mixture was allowed to be stained at room temperature for 30 minutes, and then was added with 1 ml of FACS Lysing solution (Becton, Dickinson and Company) to effect hemolysis. CD45 positive cells were gated as leukocytes, and the proportion of CD4 positive cells therein was assayed.

Binder | CD4 positive cell removal rate (%)
B1 | 91.4
B2 | 62.8
